From paper PMC6919601, “Identification of Plasmodium dipeptidyl aminopeptidase allosteric inhibitors by high throughput screening” (PLoS ONE, 2019)
Out of some 110,000 compounds screened, about 230 (0.21%) showed an effect of 50% or more. The list shows a part of the results.

Target: DPAP1 (Plasmodium falciparum, UniProt Q8IIJ9)
Experiment: primary screen, percent inhibition; read by cleavage of a fluorogenic dipeptide substrate; higher = more effect of the substance
Design: species or system P. falciparum D10 trophozoite lysates; single well
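Further: 30 min substrate incubation versus DMSO and 10 µM JCP410 controls.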

Chain of DPAP1 (Q8IIJ9 whole entry, looked up): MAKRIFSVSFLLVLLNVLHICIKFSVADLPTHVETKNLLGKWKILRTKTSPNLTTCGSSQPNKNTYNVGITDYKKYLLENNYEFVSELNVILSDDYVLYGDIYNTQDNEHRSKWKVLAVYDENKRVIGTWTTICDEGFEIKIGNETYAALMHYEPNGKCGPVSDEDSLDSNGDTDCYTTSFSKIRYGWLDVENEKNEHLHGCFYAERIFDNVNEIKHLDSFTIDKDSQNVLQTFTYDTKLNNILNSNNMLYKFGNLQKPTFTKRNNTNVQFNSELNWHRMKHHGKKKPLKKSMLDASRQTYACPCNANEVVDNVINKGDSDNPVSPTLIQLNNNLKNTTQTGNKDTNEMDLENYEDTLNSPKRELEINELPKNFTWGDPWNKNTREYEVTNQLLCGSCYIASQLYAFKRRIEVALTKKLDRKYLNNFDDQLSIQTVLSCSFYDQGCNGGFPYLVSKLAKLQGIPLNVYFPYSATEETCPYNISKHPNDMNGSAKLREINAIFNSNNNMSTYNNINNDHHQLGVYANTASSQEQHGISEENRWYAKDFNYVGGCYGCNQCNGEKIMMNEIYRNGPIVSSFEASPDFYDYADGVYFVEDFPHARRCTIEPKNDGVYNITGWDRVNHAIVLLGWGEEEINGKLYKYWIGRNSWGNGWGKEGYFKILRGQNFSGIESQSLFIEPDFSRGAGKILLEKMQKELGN

SMILES	% Inhibition @ 10 uM [%]
O=C(N1CCOCC1)C12CC3CC(C1)CC(n1cnc(Cl)n1)(C3)C2	-1.61
COc1ccc(CNC(=O)CSCc2cccc(Br)c2)cc1	0.0719
O=C(Cn1nnc(-c2ccc(OCc3cccc(C(F)(F)F)c3)cc2)n1)N1CCOCC1	2.1
c1ccc(-n2ncc3c(N4CCN(C5CCCCC5)CC4)ncnc32)cc1	2.4
O=C(c1ccc(S(=O)(=O)NCC2CCCO2)cc1)N1CCN(c2ccccc2F)CC1 (centres unmarked)	4.39
Cc1cc(C)cc(NC(=O)COc2ccccc2C)c1	1.92
COc1cc(OC)cc(-n2nnc(-c3nc(-c4ccc5c(c4)OCO5)no3)c2N)c1	8.09
O=C(Cc1ccc(F)cc1)N1CCn2c(nc3ccccc32)C1	2.34
O=C(NCc1ccco1)c1sc2ccccc2c1Cl	-3.69
CCC(C)NC(=O)c1cc(-c2ccccc2O)on1 (centres unmarked)	-0.591
CCC1CCCCN1C(=O)C1=C(C)C(=O)OC12CCC(C)CC2 (centres unmarked)	1.55
CCCc1nnc(NC(=O)c2nc(SCc3ccc(F)cc3)ncc2Cl)s1	2.41
Cc1sc(NC(=O)c2ccco2)c(C(c2ccccn2)N2CCCCC2)c1C (centres unmarked)	0.145
COc1ccc(NC(c2ccccc2)c2ccncc2)cc1 (centres unmarked)	0.986
Cc1ccc(NC(=O)C2c3ccccc3Oc3ccccc32)nc1	-0.142
O=C(CCC1CCCC1)Nc1cccnc1	-2.65
CN1C(=O)c2ccccc2C(C(=O)NCCCN2CCc3ccccc3C2)C1c1cccs1 (centres unmarked)	-5.42
Cc1cccc(C(=O)NCc2nc3ccccc3n2Cc2ccccc2)c1	-0.551
O=C(Cn1nc(-c2ccccc2)ccc1=O)NCc1ccc(F)cc1	-6.75
Cc1ccc(C)c(Cn2c(C)c(CNCc3ccc(Cl)cc3)c(C(=O)O)c2C)c1	-1.92
CC(C)CC(C(=O)NCC#N)c1cccc(-c2ccc(S(=O)(=O)NCCN(CCO)CCO)cc2)c1 (centres unmarked)	-1.41
CCOC(=O)c1[nH]c2ccc(C)cc2c1N	-0.13
CCc1ccc(CC)c(S(=O)(=O)Nc2ccc(O)c(C(=O)O)c2)c1	-0.123
CC(=O)N1CCC(N(C(=O)NC2CCCC2)C(C)C)CC1	-4.68
CC(C)N(Cc1ccccc1)C(=S)Nc1cccnc1	-4.49

SMILES	% Inhibition @ 10 uM [%]
CO/C(O)=C1\C(C)=NC2=C(C(=O)CCC2)C1c1cc2c(cc1Br)OCO2 (centres unmarked)	-4.77
CC(NCc1ccccc1)c1ccco1 (centres unmarked)	-5.07
Cc1ccc(CNC(=O)N2CC=C(c3c[nH]c4ccccc34)CC2)cc1	4.92
CCOC(=O)c1nnn(-c2nc(OCC)nc(N3CCOCC3)n2)c1C	-1.24
COc1ccc2oc(=O)c(C(=O)Nc3ccccc3)cc2c1	1.35
COC(=O)c1c(NS(=O)(=O)Cc2ccccc2)sc2c1CCCC2	-1.7
COc1ccccc1CN1CC(C(=O)O)CC1=O (centres unmarked)	-3.12
CSc1cccc(-n2nnc(C(N)=O)c2C)c1	3.92
Cc1ccc(Oc2cc(-n3ncc(C#N)c3N)nc(-c3ccccc3)n2)cc1	-2.68
CCCCN(C)C(=O)C1c2ccccc2C(=O)N(C)C1c1cn(C)c2ccccc12 (centres unmarked)	-7.27
c1ccc(C2CC(c3cccs3)n3ncnc3N2)cc1 (centres unmarked)	3.72
COc1ccc(OC)c(S(=O)(=O)N2Cc3ccccc3CC2C(=O)O)c1 (centres unmarked)	-4.49
O=S(=O)(c1ccc(CCn2cnnn2)cc1)N1CCOCC1	-4.49
CCCOc1ccc(C2C3=C(O)CCCC3=NC(C)=C2C(=O)Nc2ccccc2C)cc1 (centres unmarked)	7.05
CCC(CC)C(=O)/N=C1\SC2CS(=O)(=O)CC2N1Cc1ccc(Cl)cc1 (centres unmarked)	-2.92
CCOc1ccc(C2CC(=O)N3CN(C4CCCCC4)CSC3=C2C#N)cc1 (centres unmarked)	46.6
Cc1ccccc1N1CCN(C(=O)c2ccccc2NC(=O)c2ccccc2C(=O)O)CC1	1.39
CC1=C(C(=O)OCc2ccccc2)C(c2cccc(F)c2)NC(=O)N1 (centres unmarked)	1.38
Cc1csc(NC(=O)C(=O)c2c[nH]c3ccccc23)n1	-6.59
COc1ccc(Br)cc1CNC(=O)Cn1nc(C)n2cccc2c1=O	-0.875
COc1ccc(CCN2C(=O)CC(NCCc3ccc(S(N)(=O)=O)cc3)C2=O)cc1OC (centres unmarked)	-6.04
CC(NC(=O)Cn1cc2c(n1)CCCCC2)c1ccccc1 (centres unmarked)	1.8
CCC(=O)N1C2=C(CCCC2)C(=O)NC12CCCCC2	7.95
CCCCC12CN3CC(C)(CN(C1)C3c1ccc3c(c1)OCO3)C2=O (centres unmarked)	3.27
CCCCCCOC(=O)Nc1nnc(CCC)s1	2.76
